In this assay the target is T1, GST-ß1-AR(425–477) (human, UniProt P08588 425-477).
T1 construct: carboxy-tail of the human ß1-adrenergic receptor, amino acids 425–477 (SmaI-XhoI fragment in pGEX-4T-2); ends in the type-1 PDZ ligand ESKV; also called GST-tagged ß1-AR C-tail; GST-ß1-AR C-tail; source: BL21 bacteria, purified (glutathione resin, dialyzed in PBS with 10% glycerol); not shown: GST, N-terminal, kept
T1 sequence (looked up): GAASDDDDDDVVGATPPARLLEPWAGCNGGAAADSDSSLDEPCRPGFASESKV
The experiment in a line: pull-down; increasing concentrations of purified GST-ß1-AR(425–477) mixed with lysate of HEK-293 cells over-expressing SAP97-YFP (0.2% Triton X-100 in PBS), glutathione beads, 2 h at 4°C; anti-SAP97 blot, optical densities, half-maximal value from n = 3; apparent EC50. To be noted: one partner purified.

B1: WT rSAP97-YFP (natural protein, rat)
chain: MPVRKQDTQRALHLLEEYRSKLSQTEDRQLRSSIERVISIFQSNLFQALIDIQEFYEVTLLDNPKCVDHSKQCEPVQPGNPWESGSLSSAAVTSESLPGGLSPPVEKYRYQDEEVLPSERISPQVPNEVLGPELVHVSEKSLSEIENVHGFVSHSHISPIKPTEAVPPSSPIVPVTPALPVPAESPVVLPSTPQANPPPVLVNTDSLETPTYVNGTDADYEYE[about 80 residues left out]KAFRKNHEIKLIKGPKGLGFSIAGGVGNQHIPGDNSIYVTKIIEGGAAHKDGKLQIGDKLLAVNSVCLEEVTHEEAVTALKNTSDFVYLKAAKPTSMYINDGYAPPDITNSSSQSVDNHVSPSSYLGQTPASPARYSPISKAVLGDDEITREPRKVVLHRGSTGLGFNIVGGEDGEGIFISFILAGGPADLSGELRKGDRIISVNSVDLRAASHEQAAAALKNAGQAVTIVAQYRPEEYSRFEAKIHDLRETMMNSSVSSGSGSLRTSQKRSLYVRALFDYDKTKDSGLPSQGLNFKFGDILHVINASDDEWWQARQVTPDGESDEVGVIPSKRRVEKKERARLKTVKFNSKTRGDKGEIPDDMGSKGLKHVTSNASDSESSYHEYGCSKGGQEEYVLSYEPVNQQEVNYTRPVIILGPMKDRVNDDLISEFPDKFGSCVPHTTRPKRDYEVDGRDYHFVTSREQMEKDIQEHKFIEAGQYNNHLYGTSVQSVRAVAEKGKHCILDVSGNAIKRLQIAQLYPISIFIKPKSMENIMEMNKRLTDEQARKTFERAVRLEQEFTEHFTAIVQGDTLEDIYNQVKQIIEEQSGPYIWVPAKEKL
notes: Printed both as SAP97-YFP and as YFP-SAP97; also called YFP-SAP97
What is called EC50 is the concentration needed to bring the measured effect to its halfway point. Regarding B1, the EC50 is 500 nM.

The values above are taken from PMC3656048, “SAP97 Controls the Trafficking and Resensitization of the Beta-1-Adrenergic Receptor through Its PDZ2 and I3 Domains” (PLoS ONE, 2013).
